Source: the supplement of paper PMC10037445
Several values for one entry are separate records, joined by “and”; a condition that tells them apart may be missing. Equal entries are not always repeated. The full ranking holds about 2,900 compounds; the median of “IRF Lucia reporter activity, fold change vs agonist alone” is about 0.9, and the highest 2% start at about 2.8. The list shows a part of the results.

Experiments:
[1] = tested on: RAW-Dual; assay: IRF Lucia reporter activity, fold change vs agonist alone; cytotoxicity flag (confluency mask): not cytotoxic; higher = enhanced IRF activity
Procedure, shortened: (§1)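 Cytotoxic wells were those whose IncuCyte confluency was below 70% of agonist controls in both mask sets. The cells were RAW-Dual macrophages at 50,000 cells/well in DMEM on 384-well plates, dosed with 50 nL of library stock by pin tool, stimulated with a PRR agonist 1 h later, and kept at 37 °C, 5% CO2 for 20 hours. IRF and NF-κB reporter activity, as fold change over agonist-alone wells, came from supernatant read by QuantiLuc luminescence and QuantiBlue absorbance, respectively.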

[2] = tested on: RAW-Dual; assay: IRF Lucia reporter activity, fold change vs agonist alone; cytotoxicity flag (confluency mask): cytotoxic (confluency <70% of control); higher = enhanced IRF activity
Procedure, shortened: as §1

[3] = tested on: RAW-Dual; assay: IRF Lucia reporter activity, fold change vs agonist alone; higher = enhanced IRF activity; conditions: library stock concentration (final ~1000-fold dilution): 10 mM, agonist: MPLA (TLR4) […]
Procedure, shortened: as §1

[4] = agonist: 3'3'-cGAMP (STING) 10 ug/mL
[5] = cytotoxicity flag (confluency mask): cytotoxic (confluency <70% of control)
[6] = cytotoxicity flag (confluency mask): not cytotoxic

SMILES: C=C1C(=O)OC2C1CCC(=C)C1CCC(=C)C12 (stereo unspecified) (library stock concentration (final ~1000-fold dilution): 10 mM)
- IRF Lucia reporter activity [1, 4]: 0.0138
- IRF Lucia reporter activity ([1]; agonist: LPS (TLR4) 0.1 ug/mL): 0.0233
- IRF Lucia reporter activity [2, 4]: 0.0204
- IRF Lucia reporter activity ([2]; agonist: LPS (TLR4) 0.1 ug/mL): 0.0187

SMILES: C=C1C(=O)OC2C1CCC(=C)C1CCC(=C)C12 (stereo unspecified)
- IRF Lucia reporter activity [3, 5]: 0.952
- IRF Lucia reporter activity [3, 6]: 0.0283

SMILES: O=c1cc(CO)occ1O
- IRF Lucia reporter activity [3, 6]: 1.11

SMILES: O=c1cc(CO)occ1O (library stock concentration (final ~1000-fold dilution): 10 mM)
- IRF Lucia reporter activity [1, 4]: 1.02
- IRF Lucia reporter activity ([1]; agonist: LPS (TLR4) 0.1 ug/mL): 1.27

SMILES: Cc1cccc(-c2[nH]c(C(C)(C)C)nc2-c2ccc3c(c2)OCO3)n1 (library stock concentration (final ~1000-fold dilution): 10 mM)
- IRF Lucia reporter activity [1, 4]: 0.925
- IRF Lucia reporter activity ([1]; agonist: LPS (TLR4) 0.1 ug/mL): 0.859

SMILES: Cc1cccc(-c2[nH]c(C(C)(C)C)nc2-c2ccc3c(c2)OCO3)n1
- IRF Lucia reporter activity [3, 6]: 0.938

SMILES: CCn1c(C(=O)N(C2CC2)C2CC2)cc2c3c(ncn3C)c(Nc3cc(C)n(C)n3)nc21
- IRF Lucia reporter activity [3, 6]: 0.732

SMILES: CCn1c(C(=O)N(C2CC2)C2CC2)cc2c3c(ncn3C)c(Nc3cc(C)n(C)n3)nc21 (library stock concentration (final ~1000-fold dilution): 10 mM)
- IRF Lucia reporter activity [1, 4]: 0.419
- IRF Lucia reporter activity ([1]; agonist: LPS (TLR4) 0.1 ug/mL): 0.772

SMILES: COc1cccc2oc(-c3ccccc3)cc(=O)c12
- IRF Lucia reporter activity [3, 6]: 0.94

SMILES: COc1cccc2oc(-c3ccccc3)cc(=O)c12 (library stock concentration (final ~1000-fold dilution): 10 mM)
- IRF Lucia reporter activity [1, 4]: 0.981
- IRF Lucia reporter activity ([1]; agonist: LPS (TLR4) 0.1 ug/mL): 0.95

SMILES: CC(C)NCC(O)COc1ccc(CCOCC2CC2)cc1 (stereo unspecified) (library stock concentration (final ~1000-fold dilution): 10 mM)
- IRF Lucia reporter activity [1, 4]: 1.04 and 0.934
- IRF Lucia reporter activity ([1]; agonist: LPS (TLR4) 0.1 ug/mL): 1.28 and 0.987

SMILES: CCCc1nn(C)c2c(=O)[nH]c(-c3cc(S(=O)(=O)N4CCN(C)CC4)ccc3OCC)nc12.O=C(O)CC(O)(CC(=O)O)C(=O)O
- IRF Lucia reporter activity [3, 6]: 0.761

SMILES: CCCc1nn(C)c2c(=O)[nH]c(-c3cc(S(=O)(=O)N4CCN(C)CC4)ccc3OCC)nc12.O=C(O)CC(O)(CC(=O)O)C(=O)O (library stock concentration (final ~1000-fold dilution): 10 mM)
- IRF Lucia reporter activity [1, 4]: 1.05
- IRF Lucia reporter activity ([1]; agonist: LPS (TLR4) 0.1 ug/mL): 0.892

SMILES: Cc1c(C(=O)NN2CCCCC2)nn(-c2ccc(Cl)cc2Cl)c1-c1ccc(I)cc1 (library stock concentration (final ~1000-fold dilution): 10 mM)
- IRF Lucia reporter activity [1, 4]: 0.956
- IRF Lucia reporter activity ([1]; agonist: LPS (TLR4) 0.1 ug/mL): 0.894

SMILES: Cc1c(C(=O)NN2CCCCC2)nn(-c2ccc(Cl)cc2Cl)c1-c1ccc(I)cc1
- IRF Lucia reporter activity [3, 6]: 1.48

SMILES: CCc1nc(N)nc(N)c1-c1ccc(Cl)cc1
- IRF Lucia reporter activity [3, 6]: 0.949

SMILES: CCc1nc(N)nc(N)c1-c1ccc(Cl)cc1 (library stock concentration (final ~1000-fold dilution): 10 mM)
- IRF Lucia reporter activity [1, 4]: 0.965
- IRF Lucia reporter activity ([1]; agonist: LPS (TLR4) 0.1 ug/mL): 0.757

SMILES: CC12C=CC(=O)NC1CCC1C2CCC2(C)C(C(=O)Nc3cc(C(F)(F)F)ccc3C(F)(F)F)CCC12 (stereo unspecified) (library stock concentration (final ~1000-fold dilution): 10 mM)
- IRF Lucia reporter activity [1, 4]: 1.22
- IRF Lucia reporter activity ([1]; agonist: LPS (TLR4) 0.1 ug/mL): 1.38

SMILES: CC12C=CC(=O)NC1CCC1C2CCC2(C)C(C(=O)Nc3cc(C(F)(F)F)ccc3C(F)(F)F)CCC12 (stereo unspecified)
- IRF Lucia reporter activity [3, 6]: 1.08

SMILES: Cl.Cl.OCCN1CCN(CCCN2c3ccccc3Sc3ccc(C(F)(F)F)cc32)CC1 (library stock concentration (final ~1000-fold dilution): 10 mM)
- IRF Lucia reporter activity [2, 4]: 0.68
- IRF Lucia reporter activity ([2]; agonist: LPS (TLR4) 0.1 ug/mL): 1.95

SMILES: Cl.Cl.OCCN1CCN(CCCN2c3ccccc3Sc3ccc(C(F)(F)F)cc32)CC1
- IRF Lucia reporter activity [3, 5]: 1.74

SMILES: COc1ccc(NS(=O)(=O)c2sc3ccc(Cl)cc3c2C)cc1N1CCNCC1 (library stock concentration (final ~1000-fold dilution): 10 mM)
- IRF Lucia reporter activity [2, 4]: 0.367
- IRF Lucia reporter activity ([2]; agonist: LPS (TLR4) 0.1 ug/mL): 1.26

SMILES: COc1ccc(NS(=O)(=O)c2sc3ccc(Cl)cc3c2C)cc1N1CCNCC1
- IRF Lucia reporter activity [3, 5]: 1.15

SMILES: COc1ccc2c(c1O)-c1c(O)c(OC)cc3c1C(C2)[N+](C)(C)CC3 (stereo unspecified) (library stock concentration (final ~1000-fold dilution): 10 mM)
- IRF Lucia reporter activity [1, 4]: 1.06 and 0.922
- IRF Lucia reporter activity ([1]; agonist: LPS (TLR4) 0.1 ug/mL): 0.863 and 0.964

SMILES: N#CC1CC2CC2N1C(=O)C(N)C12CC3CC(CC(O)(C3)C1)C2.O (stereo unspecified)
- IRF Lucia reporter activity [3, 6]: 0.817

SMILES: N#CC1CC2CC2N1C(=O)C(N)C12CC3CC(CC(O)(C3)C1)C2.O (stereo unspecified) (library stock concentration (final ~1000-fold dilution): 10 mM)
- IRF Lucia reporter activity [1, 4]: 0.85
- IRF Lucia reporter activity ([1]; agonist: LPS (TLR4) 0.1 ug/mL): 0.935

SMILES: CC1CNc2c(cccc2S(=O)(=O)NC(CCCNC(=N)N)C(=O)N2CCC(C)CC2C(=O)O)C1 (stereo unspecified)
- IRF Lucia reporter activity [3, 6]: 0.948

SMILES: CC1CNc2c(cccc2S(=O)(=O)NC(CCCNC(=N)N)C(=O)N2CCC(C)CC2C(=O)O)C1 (stereo unspecified) (library stock concentration (final ~1000-fold dilution): 10 mM)
- IRF Lucia reporter activity [1, 4]: 1.01
- IRF Lucia reporter activity ([1]; agonist: LPS (TLR4) 0.1 ug/mL): 0.919
